# In PubChem BioAssay (NCI):
# A structure can be active in one record and inactive in another.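 How to read the values: 0–100, growth inhibition (40 = 60% inhibited); 0, no net growth; -100 to 0, cell death (-40 = 40% of starting cells died; -100 = all dead).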 Not every entry of the source has a single result; some have several. The list is limited to them. Rule for the calls: active = growth percent below 10; inactive = the rest. The source may hold further records. These are repeated runs of one drug, at the concentration stated with the values; each value is one run. Additions like (4×) give the number of equal values in this list.
# Key:
# SK-OV-3 ovarian = assay: NCI-60 one-dose screen, 48 h (100 = growth as untreated, 0 = no growth, -100 = all killed); conditions: 25 µM
# IGROV1 ovarian = assay: as above; conditions: 0.25 µM
smiles,measurement,setting,value
COc1cccc2c1C(=O)c1c(O)c3c(c(O)c1C2=O)C[C@@](O)(C(=O)CO)C[C@@H]3OC1CC(N)C(O)C(C)O1 (stereo not given in full),growth,SK-OV-3 ovarian; runs of 1997,"active: 8.81, -16.9, -20, 0.707, -31.4, 7.57, 8.04, 0.337, -19.5, -2.93 (2×), 3.56, 5.37, 8.54, 1.28, 8.56, -1.71, 7.02 (2×), -10.4, -9.89, -16.4, 5.63, -3.92, -34.8, -6.39, -14.7, -31, 5.39, -1.7, -3.57, 9.41, -5.65, -13.6% and inactive: 15.3, 14.1, 10.3, 15.5 (2×), 17, 11.2%"
same,growth,SK-OV-3 ovarian; runs of 1998,"inactive: 18.1, 25, 20, 13.6, 12.9% and active: -21.3, -4.83, -12.6, 9.94, -1.55, -34.6, -1.57, -22.7, -24.1, -7.16, -7.72, -7.79, -30.8, -30.4, -15.2, -2.4, -10.4, -10.2, 1.21, -35.2%"
same,growth,SK-OV-3 ovarian; runs of 1999,"active: 7.25, -12.5, -64.2, 2.13, -24.1, 1.89, 3.35, -9.09, -16, -56.1, 5.17, 4.79, -77.7, -63.2, -35.8% and inactive: 30.4%, 13%"
same,growth,SK-OV-3 ovarian; runs of 2000,"active: 2.39, -100, 2.33, -55.9%"
same,growth,IGROV1 ovarian; runs of 2006,"inactive: 36.8%, 31.9%"
same,growth,IGROV1 ovarian; runs of 2007,"inactive: 46, 18.6, 17 (2×), 30.8, 35.5, 33.1, 24.7, 30.9, 29.9, 27.9, 41.7, 56.2, 54.9, 64.2, 64.1, 17.2, 42.7, 60.6, 56.1, 22.4, 20.7, 31.8, 74.2, 54.5, 49.2, 63.6, 61.2, 52.3, 49, 74.6% and active: -44.6, -23.2, -31.6, -0.881, -4.67, -6%"
same,growth,IGROV1 ovarian; runs of 2008,"active: -14.4, -1.83, 3.24, -3.82, -2.63, 2.84, 1.99, 2.17, 9.39% and inactive: 45.1, 14.2, 13.4 (2×), 28.7, 38.4, 46.8, 56.2, 16.7, 22.7, 30.6, 32.5, 55.2, 63, 24.5, 47.3, 43.8, 23.8, 17.3, 18.5, 16.4, 43.7, 55.9, 59.8, 37.3, 22.8 (2×), 49.1, 75.7, 28.3, 34.4, 15.6, 18.9, 19.9, 61.2, 32.1, 44.9, 34.1%"
same,growth,IGROV1 ovarian; runs of 2009,"inactive: 49.9, 33.9, 79.6, 74.3, 68.7, 77.2, 49.8 (2×), 53.8, 56.9, 58.7, 69.8, 38, 51, 40.8, 45, 49.7, 47.7, 44.9, 60.1, 61.9, 44.6, 38.9, 31.4, 28.7, 29.4, 23.2, 51.3, 20.1, 37.6, 40.6, 52.6, 20.2, 37.9, 16.2, 37.4, 25.4, 32.2, 19.2, 48.3, 60.7, 37.7, 40.9, 28.9, 43.5 (2×), 48.1, 41.1, 51.6, 31.1, 53.4, 64.1, 27.8, 48.7, 69, 47.9, 46.9, 36.5, 53.3, 42.4, 36.6, 59.2, 57.9, 62.8% and active: 8.1, -6.45, -2.89, -6.65, 5.41%"
same,growth,IGROV1 ovarian; runs of 2010,"inactive: 47.6, 58.9, 48, 31.5, 50.7, 44.7, 24.2, 48.5, 21, 52.2, 40.1, 58.6, 45.2, 13.3, 43.3, 34.2, 46.8, 30.7, 37.9, 45.9, 47.1, 41.1, 55.9, 41.9, 41.5, 25.3, 26.7, 41.7 (2×), 29.2, 29.1, 30.8, 12.7, 29.3, 17.9, 41.3, 49.5, 46.6, 55.6, 44.2, 43.1, 50.3, 44.9, 44.1, 38.9% and active: 0.608%"
same,growth,IGROV1 ovarian; runs of 2011,"inactive: 38.2, 53 (2×), 44.7, 46.9, 58.3, 70.9, 61.2, 46.3, 41, 59.7, 63.1 (2×), 57.1, 59, 52.9, 64.6, 64.7, 59.9, 52.5 (2×), 57 (2×), 65.3, 57.2, 47.7, 49.1, 45.5, 39.7, 25.3, 39.1, 37.1, 50.1, 43.7, 48.7 (2×), 40.6, 49.3, 60.6, 52.6, 51, 40.5, 44.5, 48.3, 42, 39, 51.3, 42.3, 34.1, 45.2, 50.4, 62.5, 61.1, 38.7, 58.5%"
same,growth,IGROV1 ovarian; runs of 2012,"inactive: 52.9, 28.1, 61.9, 53.4, 44.9, 60 (2×), 70.9, 75.6, 54.4, 54.9, 56.5, 41.9, 63.1, 49.2, 50.9, 61.1, 49.3, 51.1, 56.3 (2×), 59.9, 51.2, 63.7, 58.8, 55.6, 67.1, 39.7, 43.3, 69.5, 69.6, 68.6, 57.5, 57.6, 55.3, 46, 60.1 (2×), 49.6, 52.5, 63.9, 60.9, 62.1, 52.6, 62.5, 50, 46.5, 45.8, 61.3, 55.4, 65.5, 56.9 (3×), 35.4, 36.8, 46.3, 51.6, 30.8, 39.5, 28.4, 27.4, 27.5, 26.4, 39.6, 33.8% and active: -19.3%"
same,growth,IGROV1 ovarian; runs of 2013,"inactive: 37.6, 31.9, 33.4, 32.2, 43.4, 43.8, 39.6, 40.3, 38.3, 46.5, 49.1, 56.8, 68.4, 47.3, 47.9, 58.2, 38.7, 65.8, 62.7, 36, 52.3, 54.6, 49.2, 41.8, 38.5, 46.7, 46.9 (2×), 37.9, 56.4, 54.9, 64.9, 60.8, 45.2, 42.3 (2×), 33.2, 47.8, 44.5, 67.9, 70.8, 63.4, 55.9, 53.9 (2×), 68, 50.1, 26.1, 62.4, 24.8, 39, 17.6, 55.4 (2×), 51.8, 38, 49.5, 28.3, 30.8, 54, 33.3, 33.7, 60.3, 39.3, 49.6, 49.8, 43.1, 58.9, 57.6, 58.8, 59.6, 63.3, 24.9% and active: 7.49%"
same,growth,IGROV1 ovarian; runs of 2014,"inactive: 61.4, 48.5 (2×), 55.5, 45.9, 51.2 (2×), 56.9, 55.4, 52.1, 61.2, 59.8, 54.4, 61.1, 61.9, 58.1, 59.1, 68, 69.8, 54.1 (2×), 59, 53.4 (2×), 52.6, 56.2, 52.4, 56.5, 53, 60.7 (2×), 67.4, 53.2, 64.3, 60.4, 40.1, 39.1, 34.8, 57.3, 57.9, 44.5 (2×), 22.9, 39.3, 40.8, 46.6, 39.2, 44, 47.9, 45.4, 49.5, 47.2, 47.6, 50, 49.2, 45.1, 42.3, 42.6, 45, 47.3, 52.2, 54.5, 50.9, 41.4, 46.7, 49.3, 48.3, 55.6, 59.6, 47.7, 50.1, 50.6, 42.7%"
same,growth,IGROV1 ovarian; runs of 2015,"inactive: 50.5, 48.8, 51.2 (3×), 50.9, 50.2, 40.6, 40.4, 46.5 (2×), 34.7, 33.7, 30.3, 28, 33.8, 31.2, 31.3, 35, 39.3, 37.4, 41.3, 58.9, 46.4, 44.1 (2×), 48, 39.5, 49.7, 47, 39.6, 43.8 (2×), 46.3, 48.4, 34.9 (2×), 45, 44.5, 43, 51.8 (2×), 44.2, 40.5, 45.3, 50.1 (2×), 37.1, 37.3, 35.3, 41.1, 31.8, 58.6, 41.9, 42, 54.4 (2×), 43.9, 36.4, 54.9, 54.5, 53.3, 56.2, 38, 50.7, 49.8, 56.7, 64.1, 64.5, 63.4%"
same,growth,IGROV1 ovarian; runs of 2016,"inactive: 45.9 (2×), 42, 49.1, 52.1, 60.5, 40.7, 37.9, 41.6 (2×), 45.2, 48.4, 54.9, 48.3, 45.3, 46.7 (2×), 44.9 (2×), 50.4 (2×), 40.5 (2×), 47.1, 43.2, 41.1 (3×), 42.2, 35.1, 38.7, 51.6, 54.3, 37.3, 36.2, 34.9, 34.5, 33.4, 35.9, 36.5 (3×), 36.3 (2×), 35.2, 30.3 (2×), 35.8, 41.8 (2×), 40.8, 43.5, 37.8, 36, 39.6, 36.4, 36.9, 43.7, 44.3 (3×), 42.8 (2×), 50.6, 43.3, 42.7, 45.1, 35, 42.3, 36.8 (2×), 33, 33.5, 41.7, 43.8, 40.3, 30.9 (3×), 35.3, 37.1, 39, 43, 42.4, 45.4, 42.6%"
